Test results reported in PubChem BioAssay AID588453 (National Center for Advancing Translational Sciences (NCATS), 2011).
About 4,000 (1%) of roughly 390,000 compounds were called active. The inconclusive results got no clear call from the source; some entries with a clear call stand among them for comparison. Calls come from the whole dose curve; as a rule, active = well fitted inhibition curve with a large enough effect; inconclusive = small, poorly fitted or top-dose-only effect; inactive = no such curve, though single readings can be large or run the other way. Potencies beside an inconclusive call are fits to weak or partial responses and may not hold up.
Note: nearly all actives have a fitted effect of over 65% in size.
Potency is the fitted concentration of half-maximal effect; tags give direction and shape of the fitted curve.

What follows are molecules tested against Thioredoxin reductase 1, cytoplasmic (Rattus norvegicus) (UniProt O89049) (assay: qHTS Assay for Inhibitors of Mammalian Selenoprotein Thioredoxin Reductase 1 (TrxR1): qHTS). Conditions: recombinant rTrxR1, NADPH fluorescence consumption, selenite substrate; series mostly up to 114 µM.
UniProt O89049, sequence (O89049 whole entry, looked up): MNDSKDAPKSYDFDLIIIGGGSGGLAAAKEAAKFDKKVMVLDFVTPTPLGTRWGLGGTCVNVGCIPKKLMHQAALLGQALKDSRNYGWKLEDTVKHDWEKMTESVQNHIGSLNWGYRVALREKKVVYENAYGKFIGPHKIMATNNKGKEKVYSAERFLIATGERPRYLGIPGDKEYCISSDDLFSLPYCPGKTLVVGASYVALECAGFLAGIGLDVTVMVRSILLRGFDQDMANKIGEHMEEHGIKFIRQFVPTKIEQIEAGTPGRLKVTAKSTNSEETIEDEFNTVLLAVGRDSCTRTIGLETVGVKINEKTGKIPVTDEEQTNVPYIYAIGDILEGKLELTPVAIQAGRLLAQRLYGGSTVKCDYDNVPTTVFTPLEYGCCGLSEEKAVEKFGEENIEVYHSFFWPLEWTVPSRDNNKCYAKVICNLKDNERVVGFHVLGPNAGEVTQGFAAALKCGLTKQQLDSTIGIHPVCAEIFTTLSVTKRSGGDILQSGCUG
Outline: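 Rat TrxR1 (90 nM in the dispensed reagent) was pre-reduced with 400 uM NADPH for 5 min at room temperature, then incubated with compound for 15 min. After 400 uM selenite was added, NADPH fluorescence (Ex 340/Em 450 nm) was followed for 8 min.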
`COc1ccccc1CNC(=O)CN1N=C(c2ccccc2)CCC1=O` was tested, and the Potency was “inactive”.
For `Cc1nc(C)c(-c2csc(Nc3ccccn3)n2)s1`, the Potency was “inactive”.
With `CCCCCCCCCCOC(=O)Cn1c(COc2ccc(OC)cc2)[n+](C)c2ccccc21` the Potency was “inactive”.
With `COc1ccc(C(C)=O)cc1COC(=O)CSC(C)C(=O)Nc1cc(C)on1` (stereo not drawn) the Potency was inconclusive: 39.8 µM [inhibitor, single point].
In the case of `COc1cc(OC)c2c(-c3ccccc3)cc(=O)oc2c1C(CCN1CCCCC1)c1ccc2c(c1)OCO2` (stereo not drawn), the Potency is reported as “inactive”.
With `Cc1ccsc1/C=N/NC(=O)Cc1ccc(Cl)cc1` the Potency was “inactive”.
With `N#Cc1c(NC(=O)CSC2=NCCS2)sc2c1CCCC2` the Potency was inconclusive: 50.1 µM [inhibitor, partial curve, poor fit].
For `C(=C\c1ccco1)/c1nc2ccccc2[nH]1`, the Potency was inconclusive: 44.7 µM [inhibitor, partial curve].
With `O=c1oc(-c2ccccc2Cl)nc2ccsc12` the Potency was inconclusive: 31.6 µM [inhibitor, single point].
`COc1ccccc1/C=C/C=N/n1c(-c2cc(C)[nH]n2)n[nH]c1=S` was tested, and the Potency was inconclusive: 39.8 µM [inhibitor, partial curve].
With `COc1ccc(Cl)cc1NC(=O)c1c(NCc2cccnc2)sc2c1CCC(C)C2` (stereo not drawn) the Potency was inconclusive: 17.8 µM [inhibitor, partial curve, poor fit].
In the case of `CCN(CC)c1ccc(-c2nnc(SCC(=O)NCc3ccco3)n2C)cc1`, the Potency is reported as “inactive”.
In the case of `O=c1ccc2cc3c4c(c2o1)CCCN4CCC3`, the Potency is reported as inconclusive: 25.1 µM [inhibitor, partial curve, poor fit].
For `O=c1cnn([C@@H]2O[C@H](CO)[C@@H](O)[C@H]2O)c(=O)[nH]1`, the Potency was “inactive”.
With `S=C(Nc1ccc(Nc2ccccc2)cc1)Nc1ccccn1` the Potency was “inactive”.
For `CC(=O)OCCc1c2ccccc2c(CCCN(C)C)c2ccccc12`, the Potency was inconclusive: 50.1 µM [inhibitor, partial curve].
For `C#CCOCCOCCOCCNc1nc(N2CCN(C(=O)[C@H](CCCCN)n3cc([C@@H](N)[C@H](C)CC)nn3)CC2)nc(N2CCN(C(=O)[C@H](CCCCN)n3cc([C@@H](N)CC(N)=O)nn3)CC2)n1`, the Potency was inconclusive: 44.7 µM [inhibitor, partial curve].
`CCCCCCCN(C(=O)CCl)c1cccc(C)c1` was tested, and the Potency was active: 39.8 µM.
With `COc1ccc(CNC(=O)CC2C(=O)NCCN2CC(C)(C)C)c(OC)c1` (stereo not drawn) the Potency was inconclusive: 79.4 µM [inhibitor, single point].
`c1ccc(C2Oc3ccccc3C3CC(c4cccs4)=NN32)cc1` (stereo not drawn) was tested, and the Potency was inconclusive: 70.8 µM [inhibitor, partial curve].
`O=C(CCc1ccccc1)NNC(=S)NC(=O)c1ccc(Cl)cc1` was tested, and the Potency was inconclusive: 3.98 µM [inhibitor, partial curve, poor fit].
With `COc1cc(C(=O)NNC(=S)NC(=O)c2ccc3c(c2)OCO3)cc(OC)c1OC` the Potency was inconclusive: 50.1 µM [inhibitor, partial curve].
`O=c1ccccn1Cc1c(F)cccc1Cl` was tested, and the Potency was inconclusive: 50.1 µM [inhibitor, single point].
`O=C1C(=O)N(CCN2CCOCC2)C(c2ccccn2)/C1=C(/O)c1ccc(Cl)cc1` (stereo not drawn) was tested, and the Potency was inconclusive: 39.8 µM [inhibitor, single point].
`Oc1ccc(NCc2ccccc2OCc2ccc(Cl)cc2)cc1` was tested, and the Potency was active: 79.4 µM.
With `Cc1cccc(COc2ccc(/C(O)=C3\C(=O)C(=O)N(CCN(C)C)C3c3ccncc3)cc2)c1` (stereo not drawn) the Potency was inconclusive: 28.2 µM [inhibitor, partial curve, poor fit].
In the case of `CSc1nc(O)c(C(c2ccc(O)cc2)c2c(O)nc(SC)[nH]c2=O)c(=O)[nH]1`, the Potency is reported as active: 8.91 µM.
`COC(=O)C1CCN(c2cc(=O)n(-c3ccccc3Cl)c(=O)[nH]2)CC1` was tested, and the Potency was inconclusive: 7.08 µM [inhibitor, full curve].
For `Cc1ccccc1N1C(=O)c2sc3nc4c(c(=O)n3c2C1=O)CCC4`, the Potency was active: 8.91 µM.
In the case of `Cc1cc(OCc2cc(C(=O)N(C)CC3CCOCC3)no2)cc(C)c1Cl`, the Potency is reported as “inactive”.
In the case of `CCOC(=O)c1ccc(NC(=S)Nc2ccc3[nH]c(=O)[nH]c3c2)cc1`, the Potency is reported as inconclusive: 56.2 µM [inhibitor, partial curve].
`CC(C)(C)c1cc(C(=O)N/N=C/c2ccc([N+](=O)[O-])s2)n[nH]1` was tested, and the Potency was inconclusive: 5.01 µM [inhibitor, partial curve].
With `COC(=O)\C(C(C)=O)=C(/C=C/C=C/N(C)C)N(C)C` the Potency was inconclusive: 44.7 µM [inhibitor, single point].
`COc1ccc(/C=C2\COc3ccccc3C2=O)cc1OC` was tested, and the Potency was inconclusive: 15.8 µM [inhibitor, partial curve].
`COc1cc(OC)cc(C(=O)NCC(=O)OCc2csc(-c3ccccc3)n2)c1` was tested, and the Potency was inconclusive: 89.1 µM [inhibitor, partial curve, poor fit].
In the case of `N#CSCC(=O)c1cccc2ccccc12`, the Potency is reported as inconclusive: 56.2 µM [inhibitor, partial curve, poor fit].
In the case of `Cc1sc2ncnc(N3CCC(C(=O)Nc4nnc(SCc5ccccc5F)s4)CC3)c2c1C`, the Potency is reported as inconclusive: 89.1 µM [inhibitor, single point].
With `C=CCNC(=S)/N=c1/ccccn1CCC` the Potency was inconclusive: 56.2 µM [inhibitor, partial curve, poor fit].
`OC(CN1CCOCC1)CN1CCOCC1` was tested, and the Potency was inconclusive: 50.1 µM [inhibitor, single point].
With `Cc1c(CCOC(=O)c2ccc(N3CCOCC3)c([N+](=O)[O-])c2)sc[n+]1CC#N` the Potency was inconclusive: 8.91 µM [inhibitor, full curve, poor fit].
In the case of `COc1cccc(-c2n[nH]c(=S)n2Cc2ccco2)c1`, the Potency is reported as active: 39.8 µM.
With `CCOCCc1nnc(NC(=O)C(=O)c2cc(C)n(-c3cccc(C)c3)c2C)s1` the Potency was “inactive”.
In the case of `c1coc(-c2ccnc(-n3cccc3)n2)c1`, the Potency is reported as “inactive”.
`CCC(Sc1ncccc1C(=O)O)C(=O)N1CCCC1` (stereo not drawn) was tested, and the Potency was inconclusive: 10 µM [inhibitor, partial curve, poor fit].
With `O=C(CCNc1ccc(Cl)cc1)c1cccs1` the Potency was inconclusive: 79.4 µM [inhibitor, single point].
`COc1ccc(NC2CC(=O)N(c3cccc(C)c3)C2=O)cc1` (stereo not drawn) was tested, and the Potency was inconclusive: 17.8 µM [inhibitor, full curve].
With `O=C(COC(=O)C1CCN(C(=O)c2ccc(Cl)cc2)CC1)c1ccco1` the Potency was inconclusive: 15.8 µM [inhibitor, partial curve, poor fit].
With `O=[N+]([O-])c1cc2no[n+]([O-])c2cc1N1CCCCC1` the Potency was inconclusive: 2.82 µM [inhibitor, single point].
With `O=c1cccccc1NN=C1CCCCC1` the Potency was inconclusive: 70.8 µM [inhibitor, partial curve].
With `CCCC1=[N+](CC(=O)c2ccccc2)CCn2c(C)ccc21` the Potency was inconclusive: 44.7 µM [inhibitor, partial curve].
`C=C1c2cc(OC)ccc2NC(=O)N1CC` was tested, and the Potency was inconclusive: 56.2 µM [inhibitor, partial curve, poor fit].
In the case of `O=C(Nc1ccc2cccnc2c1)c1ccc(Br)cc1`, the Potency is reported as “inactive”.
For `CC(=O)Nc1cccc(NC(=O)CSc2ncc(-c3ccc(Cl)cc3)n2Cc2ccco2)c1`, the Potency was inconclusive: 70.8 µM [inhibitor, single point].
`Cc1nn(-c2nc3ccccc3[nH]2)c(=O)c2ccccc12` was tested, and the Potency was inconclusive: 89.1 µM [inhibitor, single point].
With `COC(=O)C1=C(C)NC(C)=C(C(=O)OC)C1c1ccc(-c2cccc([N+](=O)[O-])c2)o1` the Potency was inconclusive: 44.7 µM [inhibitor, partial curve].
With `CCCCC1=CC2=C(c3ccco3)C(=O)C(C)(OC(=O)c3ccc(OC)cc3)C(=O)C2=CN1CCc1ccccn1` (stereo not drawn) the Potency was inconclusive: 79.4 µM [inhibitor, single point].
For `CC(=O)N1CCc2c(sc3c2c(=O)n(-c2ccc(F)cc2)c(=O)n3Cc2cc(C)ccc2C)C1`, the Potency was “inactive”.
In the case of `CCc1sc(Nc2cccc(C)c2)nc1-c1cc2cccc(OC)c2oc1=O`, the Potency is reported as “inactive”.
In the case of `COC(=O)c1ccccc1NC(=S)NC(=O)COc1ccccc1`, the Potency is reported as inconclusive: 31.6 µM [inhibitor, single point].
`COCC(C)n1c(-c2ccc3c(c2)NC(=O)CO3)csc1=Nc1ccc(OC(F)F)cc1` (stereo not drawn) was tested, and the Potency was “inactive”.
In the case of `O=C1C(NS(=O)(=O)c2cccs2)=C(N2CCN(c3cccc(C(F)(F)F)c3)CC2)C(=O)c2ccccc21`, the Potency is reported as inconclusive: 79.4 µM [inhibitor, single point].
In the case of `CN(C)C(=O)CCC(=O)N1CCCC(C(=O)c2ccc(C(F)(F)F)cc2)C1` (stereo not drawn), the Potency is reported as “inactive”.
`Cc1ccc(C)c(-n2c(-c3ccncc3)n[nH]c2=S)c1` was tested, and the Potency was inconclusive: 2.51 µM [inhibitor, full curve].
For `Cc1ccc(-c2nn(-c3ccc(F)cc3F)c3c2cnc2ccc(F)cc23)cc1`, the Potency was “inactive”.
In the case of `O=C(NCc1ccccn1)c1ccc2c(c1)N(Cc1ccccc1)CCS2`, the Potency is reported as inconclusive: 89.1 µM [inhibitor, single point].
`COc1cc(C(c2nnnn2C(C)(C)C)N2CCN(c3nc4ccccc4s3)CC2)ccc1O` (stereo not drawn) was tested, and the Potency was active: 12.6 µM.
With `COc1ccc(NC(=O)CSc2nc3c(cc2C#N)CN(C)CC3)cc1` the Potency was inconclusive: 28.2 µM [inhibitor, single point].
With `CC1C/C(=C/c2ccccn2)C(=O)/C(=C/c2ccccn2)C1` (stereo not drawn) the Potency was inconclusive: 28.2 µM [inhibitor, single point].
